# Results: the supplement of paper PMC8728848
# This is one part of the list.
# B1: PV12658A-bvu-496-32-496 (Bacteroides vulgatus) (protein)
# chain: DLDGAITTPAAVELALNGIYYSLPGNGFNVIFPTVSGSFKAGTMWRQEIVSAGNAVYYSERMLPTLSFSDATEWDADYAVIKNANFLETACNRMSDGEFSGNRRAEVLGEIAYLRALAYFNILVRYCEFWDMNSEYGVVMRNEAPSVSNALKARSSVADSYQYILDQLEIAIEKAPDWKKLSQASKEAAKALKARVLLYAGKYTEAVAAVNDAIDTNSPLPEANYGDVFDKFSTTKEILFARVFDQKDATNTSTRQQCYGNSPTKKQGYWGPTNEYVELVGDDPRADAIFSKVDSLMDSRSSAVAYNLKSVKKLLNDANDMPVIFSRVSELYLIKAEALYRSGASISEAYAPIRKLRERAGAEIILPANNEELETAIFNEWMLELSFENWHEWFAMIRFAGYTEKPDFTRLLALNKTLREALEKEYEKSEAQGDNYYQRIIDRRIDAIPSSEISSNLECKQNPGY
# Tests used:
# Experiment in all cases: glycan array binding signal (z-score within array); higher = stronger binding
# Conditions in all cases: glycan notation: IUPAC condensed, linker removed
# [1] = target: Neu5Ac(a2-6)GlcNAc(b1-4)GlcNAc(b1-4)GlcNAc
# How it was run: (§1)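 The binding signal is a Z-score computed within each array. Data were drawn from 3228 arrays in the Consortium for Functional Glycomics database, restricted to those with a known protein sequence. Scores were averaged over arrays of the same protein sequence at different concentrations or buffers, and over linkers, and negative values can be taken as non-binding.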
# Neu5Ac(a2-8)Neu5Ac = target: Neu5Ac(a2-8)Neu5Ac
# How it was run: as §1
# [2] = target: Neu5Ac(a2-8)Neu5Ac(a2-3)Gal(b1-3)GalNAc(b1-4)[Neu5Ac(a2-3)]Gal(b1-4)Glc
# How it was run: as §1
# [3] = target: Neu5Ac(a2-8)Neu5Ac(a2-3)Gal(b1-3)GalNAc(b1-4)[Neu5Ac(a2-8)Neu5Ac(a2-3)]Gal(b1-4)Glc
# How it was run: as §1
# [4] = target: Neu5Ac(a2-8)Neu5Ac(a2-3)Gal(b1-4)Glc
# How it was run: as §1
# [5] = target: Neu5Ac(a2-8)Neu5Ac(a2-3)Gal(b1-4)GlcNAc
# How it was run: as §1
# [6] = target: Neu5Ac(a2-8)Neu5Ac(a2-3)[Gal(b1-3)GalNAc(b1-4)]Gal(b1-4)Glc
# How it was run: as §1
# [7] = target: Neu5Ac(a2-8)Neu5Ac(a2-3)[GalNAc(b1-4)]Gal(b1-4)Glc
# How it was run: as §1
# [8] = target: Neu5Ac(a2-8)Neu5Ac(a2-8)Neu5Ac
# How it was run: as §1
# [9] = target: Neu5Ac(a2-8)Neu5Ac(a2-8)Neu5Ac(a2-3)Gal(b1-4)Glc
# How it was run: as §1
# [10] = target: Neu5Ac(a2-8)Neu5Ac(a2-8)Neu5Ac(a2-3)[Gal(b1-3)GalNAc(b1-4)]Gal(b1-4)Glc
# How it was run: as §1
# [11] = target: Neu5Ac(a2-8)Neu5Ac(a2-8)Neu5Ac(a2-3)[GalNAc(b1-4)]Gal(b1-4)Glc
# How it was run: as §1
# [12] = target: Neu5Ac(a2-8)Neu5Ac(a2-8)Neu5Ac(a2-8)Neu5Ac(a2-3)[GalNAc(b1-4)]Gal(b1-4)Glc
# How it was run: as §1
# [13] = target: Neu5Ac(a2-8)Neu5Gc(a2-3)Gal(b1-4)GlcNAc
# How it was run: as §1
# [14] = target: Neu5Ac(b2-6)Gal(b1-4)GlcNAc
# How it was run: as §1
# Neu5Ac(b2-6)GalNAc = target: Neu5Ac(b2-6)GalNAc
# How it was run: as §1
# [15] = target: Neu5Ac9Ac(a2-3)Gal(b1-3)GlcNAc
# How it was run: as §1
# [16] = target: Neu5Ac9Ac(a2-3)Gal(b1-4)GlcNAc
# How it was run: as §1
# [17] = target: Neu5Ac9Ac(a2-6)Gal(b1-4)GlcNAc
# How it was run: as §1
# [18] = target: Neu5Gc(a2-3)Gal(b1-3)GlcNAc
# How it was run: as §1
# [19] = target: Neu5Gc(a2-3)Gal(b1-3)[Fuc(a1-4)]GlcNAc
# How it was run: as §1
# Neu5Gc(a2-3)Gal(b1-4)Glc = target: Neu5Gc(a2-3)Gal(b1-4)Glc
# How it was run: as §1
# [20] = target: Neu5Gc(a2-3)Gal(b1-4)GlcNAc
# How it was run: as §1
# [21] = target: Neu5Gc(a2-3)Gal(b1-4)GlcNAc(b1-3)Gal(b1-4)GlcNAc(b1-2)Man(a1-3)[Neu5Gc(a2-3)Gal(b1-4)GlcNAc(b1-3)Gal(b1-4)GlcNAc(b1-2)Man(a1-6)]Man(b1-4)GlcNAc(b1-4)GlcNAc
# How it was run: as §1
# [22] = target: Neu5Gc(a2-3)Gal(b1-4)[Fuc(a1-3)]GlcNAc
# How it was run: as §1
# [23] = target: Neu5Gc(a2-6)Gal(b1-4)GlcNAc
# How it was run: as §1
# Neu5Gc(a2-6)GalNAc = target: Neu5Gc(a2-6)GalNAc
# How it was run: as §1
# [24] = target: Neu5Gc(a2-8)Neu5Ac(a2-3)Gal(b1-4)GlcNAc
# How it was run: as §1
# [25] = target: Neu5Gc(a2-8)Neu5Gc(a2-3)Gal(b1-4)GlcNAc
# How it was run: as §1
# [26] = target: Neu5Gc(a2-8)Neu5Gc(a2-3)Gal(b1-4)GlcNAc(b1-3)Gal(b1-4)GlcNAc
# How it was run: as §1
# [27] = target: Neu5Gc(a2-8)Neu5Gc(a2-6)Gal(b1-4)GlcNAc
# How it was run: as §1
# [28] = target: Neu5Gc(b2-6)Gal(b1-4)GlcNAc
# How it was run: as §1
binder,measurement,setting,value
B1,glycan array binding signal (z-score),[1],-0.359
same,glycan array binding signal (z-score),Neu5Ac(a2-8)Neu5Ac,-0.175
same,glycan array binding signal (z-score),[2],-0.019
same,glycan array binding signal (z-score),[3],-0.436
same,glycan array binding signal (z-score),[4],-0.571
same,glycan array binding signal (z-score),[5],-0.152
same,glycan array binding signal (z-score),[6],-0.141
same,glycan array binding signal (z-score),[7],-0.606
same,glycan array binding signal (z-score),[8],-0.19
same,glycan array binding signal (z-score),[9],-0.363
same,glycan array binding signal (z-score),[10],0.133
same,glycan array binding signal (z-score),[11],-0.424
same,glycan array binding signal (z-score),[12],0.483
same,glycan array binding signal (z-score),[13],5.59
same,glycan array binding signal (z-score),[14],0.17
same,glycan array binding signal (z-score),Neu5Ac(b2-6)GalNAc,-0.349
same,glycan array binding signal (z-score),[15],-0.021
same,glycan array binding signal (z-score),[16],-0.15
same,glycan array binding signal (z-score),[17],-0.17
same,glycan array binding signal (z-score),[18],-0.16
same,glycan array binding signal (z-score),[19],-0.502
same,glycan array binding signal (z-score),Neu5Gc(a2-3)Gal(b1-4)Glc,-0.122
same,glycan array binding signal (z-score),[20],-0.255
same,glycan array binding signal (z-score),[21],-0.044
same,glycan array binding signal (z-score),[22],-0.405
same,glycan array binding signal (z-score),[23],-0.47
same,glycan array binding signal (z-score),Neu5Gc(a2-6)GalNAc,-0.197
same,glycan array binding signal (z-score),[24],-0.259
same,glycan array binding signal (z-score),[25],-0.398
same,glycan array binding signal (z-score),[26],-0.303
same,glycan array binding signal (z-score),[27],-0.35
same,glycan array binding signal (z-score),[28],-0.152
